Among all 48,000 compounds or so, about 1,200 (2.5%) were called active. Not shown: some 2% with an inconclusive outcome.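 The calls were made as follows: active = activation of at least 60% and not above a set upper limit (about 1 call in 100 departs from these limits); inconclusive = activation of 40% to 60%, or above that upper limit; inactive = activation under 40%.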 The list shows a part of the results.
Molecular target: Probable G-protein coupled receptor 32 (Homo sapiens) (UniProt O75388)
Assay: qHTS for Agonists of Human Resolvin D1 Receptor DRV1; also: 0% is about no effect
Conditions: CHO-K1 GPR32 beta-arrestin PathHunter luminescence, 90 min; at 76.9 µM; hits give high values; zero percent set by DMSO-only wells
In short: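 Cells are plated overnight, treated with compounds in DMSO for 90 minutes at 37 °C, and developed with PathHunter detection reagent for 1 hour before luminescence is read; signal reflects beta-arrestin binding to GPR32 in engineered CHO-K1 cells.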

UniProt O75388, sequence (O75388 whole entry, looked up): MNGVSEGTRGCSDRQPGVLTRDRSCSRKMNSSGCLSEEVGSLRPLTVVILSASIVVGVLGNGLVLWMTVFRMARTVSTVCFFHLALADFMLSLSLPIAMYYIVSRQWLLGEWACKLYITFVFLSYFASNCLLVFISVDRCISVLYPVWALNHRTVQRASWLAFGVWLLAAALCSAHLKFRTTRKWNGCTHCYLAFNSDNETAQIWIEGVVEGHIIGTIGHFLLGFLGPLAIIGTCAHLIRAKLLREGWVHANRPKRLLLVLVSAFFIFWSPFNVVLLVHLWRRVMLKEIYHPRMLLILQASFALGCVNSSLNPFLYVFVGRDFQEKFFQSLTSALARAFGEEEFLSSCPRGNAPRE

activation, inactive:
CCOC(=O)C1=C(CN2CCN(c3ccc(Cl)cc3)CC2)NC(=O)NC1c1ccc(F)cc1 (stereo unspecified) -2.26%
NC(=O)COc1ccc(-c2noc(COc3ccc(Cl)cc3)n2)cc1 9.68%
O=C(CSc1nc2c([nH]c3ccccc32)c(=O)n1-c1ccccc1)Nc1ccccc1C(F)(F)F -20.9%
Cc1nn(CC(=O)NC(C)c2ccccc2)c(=O)c2cc3occc3n12 (stereo unspecified) 3.24%
COc1cccc2c1Oc1ncccc1N(C(=O)CCC(=O)NCc1ccc(OC(C)C)cc1)C2 -14%
NS(=O)(=O)c1ccc(CCNC(=O)Cn2c(=O)c3cccn3c3ccc(F)cc32)cc1 -7.37%
COc1ccc2c(c1)CC(C(=O)Nc1c(C)cc(C)cc1C)CO2 (stereo unspecified) -20.3%
CCc1ccccc1-n1nnc(-c2nc(-c3ccccc3F)no2)c1C 4.37%
O=C(Nc1cccc(F)c1)C1CCN(c2nc3ccccc3nc2C(F)(F)F)CC1 -21.7%
Cc1ccc(-n2c3c(c(=O)[nH]c2=O)C(NC(=O)C(C)(C)C)(C(F)(F)F)C(=O)N3)cc1 (stereo unspecified) -24.7%
COc1cc(CNCCCSc2nnnn2C)cc(Br)c1OC -6.18%
COc1cccc(C(=O)NCC(c2ccc3c(c2)OCO3)N2CCN(C)CC2)c1 (stereo unspecified) -1.81%
Cn1c(=O)n(C)c2cc(NS(=O)(=O)c3ccc(Cl)cc3)c(NCc3ccccc3)cc21 7.63%
COc1cccc(NC(=O)CSC2=Nc3ccccc3C3=NC(CCC(=O)NC4CCCCC4)C(=O)N23)c1 (stereo unspecified) -0.0151%
COc1ccc(OC)c(NC(=O)CCCOc2cc(=O)n(C)c3ccccc23)c1 2.44%
CCn1cc(C(=O)N2CCN(c3ccccc3OC)CC2)c2cc(OC)c(OC)cc2c1=O 5.29%
N[C@H]1C(O)O[C@H](CO)[C@@H](O)[C@@H]1O (stereo partly specified) 14.6%
CN1C2CC(OC(=O)[C@H](CO)c3ccccc3)CC1C1OC12 (stereo partly specified) -3.64%
CCc1ccc(NC(=O)c2ccc(CNS(=O)(=O)c3ccc4c(c3)C(C)(C)C(=O)N4C)cc2)cc1 -5.11%
CCOc1cccc2sc(=NC(=O)c3ccc(S(=O)(=O)N4CCOCC4)cc3)n(C)c12 16.4%
CCC(Oc1ccccc1)C(=O)Nc1nnc(S(=O)(=O)N2CCCC2)s1 (stereo unspecified) -10.9%
CCc1ccc(OCC(=O)Nc2c(C(=O)c3ccc(Br)cc3)oc3ccccc23)cc1 -11.1%
CCOC(=O)c1cnc2c(OC)cccc2c1N1CCN(c2ccccc2F)CC1 26.4%
COc1ccc(CCNC(=O)CCCCn2c(=O)c3ccccc3n(Cc3cccc(C)c3)c2=O)cc1OC -30.3%
O=c1oc(Cl)c(Cl)c2ccccc12 -6.48%
COc1ccc(NC(=O)c2oc3ccccc3c2NC(=O)c2cc(=O)c3ccccc3o2)cc1 3.5%
CCCCN(CCCC)CCn1cnc2c([nH]c3ccc(OC)cc32)c1=O -2.24%
COc1ccc(C(=O)Nc2ccc3c(c2)CCCN3S(=O)(=O)c2ccc(C)cc2)cc1 -13.8%
COc1ccc(CNC(=O)c2ccc(-c3nc(CSc4ccccc4)c(C)o3)cc2)cc1 34.5%
COc1ccccc1Nc1nn2c(=O)c3ccc(C(=O)NC4CCCCC4)cc3nc2s1 13.3%
CCOc1ccc(N(CC(=O)NCc2ccc(C)cc2)S(=O)(=O)c2c(C)[nH]c(=O)[nH]c2=O)cc1 -2.66%
Brc1ccc(-c2csc(-c3nc(-c4ccc(Br)s4)cs3)n2)cc1 11.9%
CCOC(=O)N1CCc2c(sc(NCc3ccc(N(C)C)cc3)c2C(=O)Nc2ccccc2OCC)C1 38.2%
CCN(CC)CCNC(=O)Cn1cnc2sc(C)c(S(=O)(=O)N3CCN(c4ccccc4OC)CC3)c2c1=O 4.59%
CCc1ccc(NC(=O)c2sc3nc(-c4ccccc4)cn3c2C)cc1 23.3%
CCN1CCN(C(c2cccc(OC)c2)c2c(O)cc(C)n(Cc3ccco3)c2=O)CC1 (stereo unspecified) -14.9%
CC(NC(=O)c1ccc(Cn2c(SCc3ccccc3)nc3cccnc32)cc1)c1ccccc1 (stereo unspecified) 18.7%
CC(CCc1ccccc1)NC(=O)Cn1ncc2c3ccccc3n(Cc3cccc(Cl)c3)c2c1=O (stereo unspecified) -0.913%
COc1ccc(CN(C(=O)c2ccc(OCC(C)C)cc2)C2CCS(=O)(=O)C2)cc1 (stereo unspecified) -27.4%
CCOc1ccc(NC(=O)CSc2oc(-c3ccco3)nc2S(=O)(=O)c2ccc(Cl)cc2)cc1 -18.6%
COc1cccc(C2C=C(c3ccc(C)cc3)Nc3c(C(=O)Nc4ccc(F)cc4)cnn32)c1OC (stereo unspecified) -0.872%
O=C(Nc1ccccc1C(F)(F)F)N1Cc2ccccc2Oc2ncccc21 -19.6%
COc1ccc(NC(=O)CSc2nc(-c3ccccc3)c3ccccc3n2)cc1 -18.1%
CCOc1ccc(-c2n[nH]c3c2C(c2cccs2)N(c2ccc(Br)cc2)C3=O)cc1 (stereo unspecified) -14.7%
CCOC(=O)c1cc(-c2ccc(OC)cc2)n(CCC(=O)NC2CCC(C)CC2)c1C (stereo unspecified) -29.3%
Cc1cccc(C(=O)NCc2nnc(SCC(=O)Nc3ccccc3F)n2-c2ccccc2)c1 -11.3%
CCc1cccc(-n2nnc(-c3nc(-c4ccc5c(c4)OCO5)no3)c2C)c1 -9.33%
COc1ccc(N2CCN(C(=O)Nc3ccc(Cl)cc3)CC2)cc1 19.5%
COc1ccc(S(=O)(=O)N2CCN(C(=O)c3cc(-c4ccc(Br)cc4)n[nH]3)CC2)cc1OC 33.7%
COc1ccc(-n2nc3c(N4CCCC(C(=O)NCc5ccccc5C)C4)nnc(C)c3c2C)cc1 (stereo unspecified) 12.8%
O=C(NCCn1cc(SCc2ccc(C(F)(F)F)cc2)c2ccccc21)c1cccs1 0.635%
Cc1nnc(SCC(=O)NCc2cccc(F)c2)c2nn(-c3ccccc3)c(C)c12 5.25%
COc1ccc2c(c1)c(CC(=O)OC/C=C(\C)CC/C=C(\C)CCC=C(C)C)c(C)n2C(=O)c1ccc(Cl)cc1 12.5%
Cc1cccc(NC(=O)CSc2nc(=O)n(CCN3CCOCC3)c3c2CCC3)c1 -3.58%
CNC(=O)C1CCC(Cn2c(=O)c3sccc3n(CC(=O)Nc3ccc(C)cc3C)c2=O)CC1 (stereo unspecified) -11.3%
Cc1ccc(-n2ncc(C(=O)NCCN3CCc4ccccc4C3)c2C2CCN(C(=O)OC(C)(C)C)CC2)c(C)c1 -2.11%
CN(c1nnc(NC(=O)Nc2ccc(Br)cc2)s1)C1CCCCC1 2.67%
COc1ccccc1CNc1ncnc2onc(-c3ccc(Cl)cc3)c12 29.7%
COc1cccc(NC(=O)CN2C(=O)COc3ccc(S(=O)(=O)N4CCOCC4)cc32)c1 -18.2%
Cc1ccc(NC(=O)Nc2csc3c2CCCC3)c(C)c1 -13.8%
CCC1(O)CC2CN(CCc3c([nH]c4ccccc34)[C@@](C(=O)OC)(c3cc4c(cc3OC)N(C)C3[C@]45CCN4CC=C[C@@](CC)([C@@H](OC(C)=O)[C@]3(O)C(=O)OC)[C@H]45)C2)C1 (stereo partly specified) -19.5%
Cc1cc(C(=O)Nc2ccc(Cl)cc2)c2c(C)nn(-c3ccccc3)c2n1 -6.52%
CCCS(=O)(=O)NCCc1sc2nc(-c3ccc(Cl)cc3)nn2c1C 12.9%
CCOC(=O)c1c(NC(=O)c2cc(=O)c3c(C)cc(C)cc3o2)sc(C)c1C 9.87%
NC(=O)C1CCN(C(=O)c2ccccc2NC(=O)c2nsc3ccccc23)CC1 -14.4%
COc1ccccc1C(=O)NC1(C(F)(F)F)C(=O)NC(C)=C1C#N (stereo unspecified) -6.01%
COc1ccccc1N1CCN(C(=O)C2CCN(S(=O)(=O)c3cccs3)CC2)CC1 25.8%
CCOC(=O)c1cnc2cc(Cl)c(OC)cc2c1Nc1ccc(Br)cc1C 4.41%
C#CCOc1c(Br)cc(C2C(C(=O)OC)=C(C)NC3=C2C(=O)c2ccccc23)cc1OCC (stereo unspecified) -29.7%
Cc1ccccc1NC(=O)Cn1nnc(C(=O)NCc2ccco2)c1N 34.3%
COc1cc(OC)c(NC(=O)c2nn(C)c3c2COc2ccccc2-3)cc1Cl 1.9%
O=C(Nc1ccccc1)c1cc2c(-c3ccccc3)nn(-c3ccccc3)c2s1 -5.78%
Cc1ccc(-c2nnc(Nc3cccc(Br)c3)c3ccccc23)cc1S(=O)(=O)N1CCN(C)CC1 -4.15%
COc1ccc(Cn2nc3n(c2=O)-c2ccccc2OC3)cc1 15%
Cc1ccc(C)c(Cn2c(=O)n(CCc3ccccc3)c(=O)c3c(C)c(C)sc32)c1 -1.91%
CSc1ccc(CCNS(=O)(=O)c2cc(-c3cc(C)no3)ccc2C)cc1 -10.7%
CCOc1ccc(OC(=O)c2sc3ncn(Cc4cccc(F)c4)c(=O)c3c2C)cc1 -6.72%
O=C(CSc1c2c(nc3ccc(Cl)cc13)CCCC2)N1CCN(c2ccc(Cl)cc2)CC1 -29.8%
COc1ccc(OC)c(NC(=O)C(Cc2ccccc2)NS(=O)(=O)c2ccc3c(c2)CCC(=O)N3)c1 (stereo unspecified) 7.4%
CCn1cc2nc(SCc3c(F)cccc3Cl)n(CCc3ccccc3)c(=O)c2n1 16.4%

activation, active:
CC(=O)N1c2ccc(S(=O)(=O)NCC3CCC(C(=O)Nc4cccc(F)c4)CC3)cc2CC1C (stereo unspecified) 64.2%
